Measured values from PMC4336329 (PLoS ONE, 2015).
In all, about 310,000 compounds went through this assay and about 2,200 (0.71%) showed an effect of 50% or more. Effects have a minus sign here. Some of the results follow.

Target: human ether-à-go-go-related gene (hERG) potassium channel (human, UniProt Q12809)
Assay: primary screen, population patch clamp on CHO cells stably expressing hERG

human ether-à-go-go-related gene (hERG) potassium channel, sequence (Q12809 whole entry, looked up): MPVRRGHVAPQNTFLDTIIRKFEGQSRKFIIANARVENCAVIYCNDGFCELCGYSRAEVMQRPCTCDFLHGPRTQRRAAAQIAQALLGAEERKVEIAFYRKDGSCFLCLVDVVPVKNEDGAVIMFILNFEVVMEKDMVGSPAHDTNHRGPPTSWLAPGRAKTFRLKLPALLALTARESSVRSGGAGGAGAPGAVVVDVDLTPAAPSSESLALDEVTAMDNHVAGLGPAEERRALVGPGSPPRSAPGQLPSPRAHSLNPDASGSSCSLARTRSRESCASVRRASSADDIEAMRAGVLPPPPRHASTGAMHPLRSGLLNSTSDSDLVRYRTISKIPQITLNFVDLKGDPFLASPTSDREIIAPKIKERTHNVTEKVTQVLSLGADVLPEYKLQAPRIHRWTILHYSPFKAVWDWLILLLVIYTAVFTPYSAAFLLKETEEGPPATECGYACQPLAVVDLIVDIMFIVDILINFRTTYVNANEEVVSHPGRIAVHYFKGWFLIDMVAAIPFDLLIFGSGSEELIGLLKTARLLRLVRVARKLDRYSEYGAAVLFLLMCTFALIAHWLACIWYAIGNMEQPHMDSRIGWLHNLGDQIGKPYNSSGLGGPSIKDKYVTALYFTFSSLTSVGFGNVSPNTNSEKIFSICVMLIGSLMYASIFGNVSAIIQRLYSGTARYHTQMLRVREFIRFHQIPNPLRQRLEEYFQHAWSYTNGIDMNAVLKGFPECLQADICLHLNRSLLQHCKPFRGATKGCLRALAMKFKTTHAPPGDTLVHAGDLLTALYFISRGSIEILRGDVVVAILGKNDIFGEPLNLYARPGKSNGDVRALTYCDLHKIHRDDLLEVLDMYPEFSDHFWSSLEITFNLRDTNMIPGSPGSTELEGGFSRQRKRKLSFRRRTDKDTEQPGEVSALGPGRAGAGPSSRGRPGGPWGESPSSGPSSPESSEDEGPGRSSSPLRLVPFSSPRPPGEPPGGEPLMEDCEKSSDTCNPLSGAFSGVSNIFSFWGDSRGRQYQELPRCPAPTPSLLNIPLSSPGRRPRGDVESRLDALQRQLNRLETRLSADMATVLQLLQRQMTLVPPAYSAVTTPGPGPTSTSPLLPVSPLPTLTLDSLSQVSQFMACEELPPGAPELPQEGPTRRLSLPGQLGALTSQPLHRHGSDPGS

SMILES	hERG current change (%, negative = inhibition) at 1uM
CC1CCN(CCCNC(=O)c2cc3c(=O)n(C)c4ccccc4c3n2C)CC1	-1.66%
CCOc1ccc(C)cc1S(=O)(=O)n1ccc(C)n1	9.83%
COc1cccc(/C=N/Nc2nc3ccccc3n3cnnc23)c1O	10.2%
COc1cccc(CNC(=O)CCNC(=O)c2ccc(Br)o2)c1	16.7%
COC(=O)C1=C(NC(=O)c2cccc(OC)c2)CCS1	14.3%
CCN1C(=O)CC(NCc2ccc3c(c2)OCO3)C1=O (stereo not drawn)	-4.21%
C=CCN(C(=O)c1csnn1)C(C(=O)NC1CCCCC1)c1ccc(Cl)cc1 (stereo not drawn)	7.27%
CCOC(=O)N1CCC(NC(=O)c2cc3c(-c4ccc(Cl)cc4)nn(C)c3s2)CC1	4.21%
COC(=O)c1ccc(-c2nc3ccc(C)cc3o2)cc1	-2.58%
CN(C)/C=C/C(=O)c1cnc2n(c1=O)CCS2	3.09%
Cc1ccc(CNC(=O)[C@H](C)NC(=O)C2CCN(C(=O)[C@@H]3CCCN3C(=O)OC(C)(C)C)CC2)cc1	0.578%
COc1ccc(-c2[nH]ncc2CNC(C)Cc2ccsc2)c(F)c1 (stereo not drawn)	-9.39%
CC(C)C(NC(=O)c1ccc(C(C)(C)C)cc1)C(=O)NCCc1ccccn1 (stereo not drawn)	5.88%
CC(C)c1ccc(NC(=O)NC2CCCCC2)cc1	9.49%
N#Cc1nc(-c2cccs2)oc1NCc1ccccc1Cl	13.7%
CCC(C)n1c(O)c(C=Nc2cccc(C(F)(F)F)c2)c(=O)[nH]c1=S (stereo not drawn)	3.06%
Cc1c(Cl)c([N+](=O)[O-])nn1CC(=O)N1CCN(Cc2ccccc2)CC1	-22.8%
N#C/C(=C(/O)CN1CCN(c2ccccc2F)CC1)c1nc(-c2ccccc2)cs1	19.2%
Cc1ccc(N/C(CSC(N)=O)=N/S(=O)(=O)c2ccccc2)cc1	-3.79%
N#Cc1c(NC(=O)Cn2nc(C(F)(F)F)c3c2CCCC3)sc2c1CCC2	-0.645%
S=C(c1cn(Cc2ccc(Br)cc2)c2ccccc12)N1CCOCC1	5.53%
CC(=O)NC(CC(=O)OCC(=O)c1c(N)n(C)c(=O)n(C)c1=O)c1ccccc1 (stereo not drawn)	7.04%
CSc1nnc(C)c(=O)[nH]1	13.1%

SMILES	hERG current change (%, negative = inhibition) at 1uM
CCOC(=O)/C=C1\SCC(=O)N1CC(=O)c1ccc[nH]1	15.9%
C=CCn1c(O)c(C(C)=Nc2ccc(N(CC)CC)cc2)c(=O)[nH]c1=O	-1.29%
O=S(=O)(NN1CCOCC1)c1ccc(Br)cc1	7.45%
CCN(CC)C(=O)Cn1cc(S(=O)(=O)CC(=O)NCc2ccc3c(c2)OCO3)c2ccccc21	10.4%
Nc1nnc(CCS(=O)(=O)c2cc(Cl)ccc2Cl)s1	-4.93%
CCOC(=O)CSc1nc(NCc2ccco2)c2ccccc2n1	-9.13%
C=CCN(CC=C)Cc1c[nH]c2ccccc12	5.11%
CCCC(C(=O)NC1CCCC1)N(CC1CCCO1)C(=O)CNS(=O)(=O)c1ccccc1 (stereo not drawn)	18.1%
Cn1cc(-c2nnnn2-c2ccc(Cl)cc2)c(C(F)(F)F)n1	6.75%
CC1CCC(NCCc2ccc3c(c2)OCO3)CC1.O=C(O)C(=O)O (stereo not drawn)	-0.635%
CC(C)[C@H](NC(=O)[C@@H]1Cc2ccccc2CN1)C(=O)NC1CCCCC1	-2.56%
C=CCNc1nc(N2CCOCC2)nc(N2CCOCC2)n1	5.34%
CCc1cccc2c(C=C(C#N)C#N)cn(CC(=O)N3CCCC3)c12	2.04%
O=C(Oc1cccnc1)c1ccc(Cl)c(Cl)c1	4.94%
Cc1ccccc1NC(=O)/C(=C/c1ccccc1)c1ccccc1	8.64%
Cc1ccc(S(=O)(=O)N2CCOCC2)cc1C(=O)NCc1cccs1	8.57%
CCOC(=O)[C@H]1[C@H]2COc3cc(OC)ccc3[C@@H]2N2C(=O)c3cc(OC)ccc3NC(=O)[C@@]12C	8.59%
CCCc1cc(N2CCC(C(N)=O)CC2)nc(-c2ccccc2)n1	-2.87%
OC(COCc1cccs1)CN1CCN(c2cccc(C(F)(F)F)c2)CC1 (stereo not drawn)	-14.8%
Cc1ccc(C(=O)NCC(=O)OCC(=O)Nc2cc(C)c(C)cc2[N+](=O)[O-])cc1	12.1%
CC1CC(C)CN(C(=O)CSCC(=O)Nc2nc(-c3cccs3)cs2)C1 (stereo not drawn)	14%
COc1ccc(NC(=O)CC(=O)Nc2ccc(OC)cc2OC)c(OC)c1	2.93%
